To fix the notation:
B1: LINE1-full (parent)
chain: UACGUAGGUGGUUUUCCCCUGAUAGUGCUAAGGGGGCCUGGAAGUUUGGACUGGGCAGAGCUCAACACAGCGUGGCAAAGUGGCUGUGGCUAGACUGCCUCUCUGGAUUCCUCGUCACUCAGCAGGGCAUCUCUGAGAGAAAUGCC

Experimental findings from the RNAGym collection of RNA variant scans (doi:10.7554/elife.90254) are described below.

Read counts are not given, so values of variants with three or more changes are uncertain.

In this data set the parent is B1. Description: self-cleavage, relative activity (ratio to wild type); higher = more cleavage; in vitro, sequencing; the parent is a self-cleaving ribozyme.
Consider U20G A50G U87A C95U, for which the self-cleavage was found to be 0.03.
Consider U12A U73A U132C A136U U143G, for which the self-cleavage was determined as 1.41.
U9A A42G U96C G105U U132C A141G: the self-cleavage amounted to 0.17.
For U14C U26A U85C, the self-cleavage came to 0.32.
For U20C U132C A142G, the self-cleavage worked out at 1.6.
For the variant A2C U52A A59G A136G, the self-cleavage was found to be 0.1.
U46A U81C U130C A140G: the self-cleavage stood at 0.35.
On to U87C A92U U132C, for which the self-cleavage is 0.22.
As to U1C A6U A92G, the self-cleavage came to 0.1.
Consider U62C A107G A140G, for which the self-cleavage turned out to be 0.08.
To C3U U47C A69U belongs 0.36; to U9C A129G U132A, 2.73; to U26C A78G A117G A140G, 1.62.
As to U45C A69C U132C, the self-cleavage is 0.15.
For the variant U1C A59U U62A C120A, the self-cleavage amounted to 0.02.
Regarding U13G U132C A141G, the self-cleavage was found to be 0.65.
Take U104C U109C A138G A142U: the self-cleavage was 0.85.
For the variant U13C U20C G21U G58A U73C, the self-cleavage came to 0.1.
With A6G A65G G74A U85C A140G A142G U143C, the self-cleavage stood at 0.22.
U73C A121G A136G: the self-cleavage came out at 0.71.
Consider A24G A30G A79G A141G, for which the self-cleavage amounted to 1.27.
A64G U81C U108C: the self-cleavage turned out to be 1.2.
For U1C A78G U100C U102C A138G, the self-cleavage turned out to be 0.
To U39A A50U A92U A129G belongs 0.66; to U39C U112A A117G, 1.08; to G60A A67U C145U, 0.03.
For the variant U15C A43G A64G G126A A138G, the self-cleavage came out at 0.
With U9G G32A C131A A140U A142G, the self-cleavage amounted to 1.73.
The figure for U26C A50G U81A U115C is 2.04; for U39A A57G A138G A141G A142U it is 0.75.
Take U15G A43G U104C A138U U143C: the self-cleavage is 0.
To U62C A64U U96G C120U belongs 0.07.
In the case of U29A A31U U87C A124G, the self-cleavage stood at 0.
For the variant U15C A43G U119C, the self-cleavage is 1.88.
Regarding C19U A22G A31C, the self-cleavage came out at 0.39.
As for A50G U81A A121G, the self-cleavage was found to be 1.23.
The figure for G60A U73A A92G is 0.01; for U20C U26C U46C U100C it is 2.63; for A42U U87C U108G it is 0.
To A50C A64G G105A belongs 0.29; to A30C A78U A141G, 2.88.
Consider U13C A31G U87G U119C, for which the self-cleavage worked out at 0.66.
U109C U112A U132C: the self-cleavage came to 1.57.
With A2G U15C G33A C116U, the self-cleavage worked out at 2.3.
As to A31G A59C A142G, the self-cleavage is 0.
For the variant G7A U9A U13C A78G A79G, the self-cleavage was determined as 1.58.
U20C A79G U108C: the self-cleavage was determined as 1.12.
For the variant U12A A22G A24G U91C U115A, the self-cleavage stood at 0.
The figure for A59G U132C A141C is 0; for U45C A124G A138G it is 1.02; for U12C A42G A107G U119A it is 1.78.
As for G55C U73C U87G U132C A138U, the self-cleavage is 0.09.
On to U104C U119C U143C, for which the self-cleavage was found to be 1.02.
The figure for A69U U73A A94U A138G is 0; for U20A A30G A78G U87A it is 0.3.
Regarding A67G C76U A79G U134C A140G, the self-cleavage was 0.46.
With U14C C19U A136U, the self-cleavage was determined as 1.09.
Turning to U14A U39A A43G U104C, the self-cleavage amounted to 1.35.
The figure for A6G U14C A79C A140G is 1.31; for A69C A79U A140G it is 0; for U13C A117G G126A it is 1.23.
The figure for U15A U112C U132C is 1.13; for U26A U108C A138G it is 1.45; for U5C U52C A92G it is 0.
As for U15A A24G U85A U108C A141G U143C, the self-cleavage is 0.
To U62C U87A A138G belongs 0.03; to U13C A65C A69G C98A A136G, 0.05.
Take U47C U102C G127A: the self-cleavage was 2.02.
For the variant A65G A107G U132A, the self-cleavage stood at 0.
Regarding U1C G32U U52A A129G, the self-cleavage was determined as 1.31.
As for U23C U29C U130C, the self-cleavage is 2.07.
Consider U47C A50G A140G, for which the self-cleavage came out at 0.61.
On to U9A U29A U96C, for which the self-cleavage was 0.34.
As for A2U A6U U73C, the self-cleavage is 0.26.
On to U15A A78G A140G, for which the self-cleavage came to 1.09.
The figure for U13A A64G A78G U87G A129G is 0.15.
Regarding C19U U47C A142C, the self-cleavage was determined as 1.53.
Consider U14C A42G U62C, for which the self-cleavage stood at 0.14.
With U14C G21U U100C A124G G144A, the self-cleavage worked out at 1.23.
As for U45C U85C A94G C145U, the self-cleavage was 0.24.
For the variant U14C U119A A141G, the self-cleavage came to 1.
To U12C A30U U100C belongs 1.31; to U20C U26A A141G, 1.48; to U13C U73A U119C, 1.87.
For the variant C37A U87C U134C, the self-cleavage came to 0.12.
Turning to U14C C38U U46A A141C, the self-cleavage worked out at 1.01.
In the case of A57G A65G U115C, the self-cleavage is 0.
Regarding U1C A79U G125U, the self-cleavage was 0.91.
U9C U29A A67U A107G: the self-cleavage is 0.43.
For the variant U47A U73C G122C, the self-cleavage came to 1.77.
The figure for A31C C71G U73A is 0.09; for A24U U62A A69G A94G it is 0.31; for U62C U73A C103A A121G it is 0.01.
As for U15A G25C U102A, the self-cleavage was 1.45.
Take A31U A69U A92U A140G: the self-cleavage was found to be 0.07.
G27A A94G A142G: the self-cleavage was 0.09.
In the case of G36A U52A A59G A67U A117U, the self-cleavage came to 0.04.
To C38U U73C U85C belongs 0.11; to A59G A67G G93U A136G A142G, 0.
To A50G U85A U96C U115A belongs 0.09; to A77U U81C U87C, 0.18; to U13C A64U A92U, 0.26.
Regarding U13C C71A A117G U134C A140G, the self-cleavage is 0.29.
Turning to A67G A138C A141G, the self-cleavage stood at 0.45.
In the case of A64U A77C U100A, the self-cleavage came to 0.22.
On to C56A A78G A129U, for which the self-cleavage was determined as 0.06.
As to U9C A43G U96G, the self-cleavage is 0.31.
As for U26C U87C U115C, the self-cleavage came out at 1.15.
As to U9C G10U A69U, the self-cleavage was determined as 0.23.
G35A A77G G106U U108C C131U: the self-cleavage was determined as 1.3.
Take A42G A94U A140G: the self-cleavage was 0.
With U13C A24G A107G A141G, the self-cleavage stood at 0.94.
For the variant A57G A94G U143C, the self-cleavage came out at 0.
With A31G C66U G93U C113A, the self-cleavage is 0.02.
With U14C U26G G49U A50G C84A U96A G125U, the self-cleavage was 0.08.
To G10U U62C A79G belongs 0; to U20C U81C U102C A140U, 1.1; to U5C U15A U104C, 1.15.
The figure for A77G U91C U134C is 1.47; for U12C U13C U15A U23C U100C it is 0; for A78U U96A U102C C128A it is 0.05.
In the case of G55A A64G A78U U85C A140G, the self-cleavage came out at 0.01.
C19A U96C G144A: the self-cleavage is 0.35.
For U26A U39C G106C A142G, the self-cleavage stood at 0.63.
A64U A94G U100C U119C: the self-cleavage was determined as 0.
A65G C68U U132C: the self-cleavage was determined as 0.08.
Consider G36A C38U A78G G139A, for which the self-cleavage was found to be 1.23.
In the case of U23A U109C A124G U134C, the self-cleavage was 0.
G74A G88A A117G A129G: the self-cleavage came out at 0.03.
To C17A A69U A78G U96C belongs 0; to U14G A59G A78G U119C, 0; to U9A A43G U47A U115C, 2.51.
Take U14C A31U A65G: the self-cleavage amounted to 0.
As for U46A A59U A67G A107G A136G A138G, the self-cleavage is 0.
U14A A59G C63U: the self-cleavage was found to be 0.03.
Take U26G A42U A129C: the self-cleavage came out at 1.51.
As to C3U G21U G55C, the self-cleavage was 0.04.
With U20C U62C A67G, the self-cleavage turned out to be 0.41.
As for U15A U23C U29C U81A U112A A142G, the self-cleavage was 1.23.
For the variant A31G A77G U81G A124G, the self-cleavage is 1.02.
Consider U39C U87A A117G A138U, for which the self-cleavage is 0.
For U1C U5C A138U, the self-cleavage amounted to 1.25.
To U13C G25U C51U C68U belongs 0.44; to U13C U20A A64G G75A G114A, 0.18; to A6G A124G U132A, 0.
The figure for G48U U109C U134C is 1.32; for A65U A67G A107G A117U it is 0; for A2G A59G G74C A124U it is 0.
As for U13C U62A A138G A142G, the self-cleavage was 0.06.
As for U14C U108A A142G, the self-cleavage is 0.97.
In the case of A22G A43U U73C A124G, the self-cleavage turned out to be 1.58.
With A78U U87C A92G, the self-cleavage was 0.16.
In the case of U39A A43G G48U A79U, the self-cleavage turned out to be 0.81.
The figure for G48A A50U U85A is 0.06.
Consider U15C G49C U130C, for which the self-cleavage was determined as 2.42.
As for A6G U15C A43G, the self-cleavage was found to be 0.64.
With U13C U20C U132A A138U A140U, the self-cleavage came to 1.79.
As to A24G A43C A65U U100A A140G A142G, the self-cleavage was 0.15.
The figure for U52C U104C U130C U143A is 2.04; for U109A U132C A138G G144A it is 1.57.
For the variant A59G U87A A129U A142G, the self-cleavage is 0.05.
For the variant U13C U52C A141G, the self-cleavage stood at 0.99.
The figure for U13A A22U A43G U62A is 0.06; for U1A A42G A64U A78G it is 0.53.
As for U9C A79G U132C, the self-cleavage worked out at 1.12.
G75A A79G U104A: the self-cleavage is 0.77.
To U26C C90A A142G belongs 0.02.
